Test results published in PubChem BioAssay AID1508624 (National Center for Advancing Translational Sciences (NCATS), 2021).
Among all 48,000 compounds or so, about 120 (0.25%) were called active. Not shown: some 4% with an inconclusive outcome. Calls follow the shape of the dose curve; as a rule, active = well fitted activation curve with a large enough effect; inconclusive = small, poorly fitted or top-dose-only effect, or another doubt; inactive = no such curve, though single readings can be large or run the other way. The list shows a part of the results.

test: Primary qHTS for Identification of Small Molecule Activators of Huntingtin-Antisense Promoter Activity; conditions: HEK293 HTT-AS promoter firefly luciferase reporter (activity 0% = vehicle and -100% = no light), 24 h; series mostly up to 57.5 µM; activity change, positive = activation: at the top concentration; also: nearly all actives have a fitted effect of over 55% in size
Summary of the method: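 Firefly luciferase signal from promoter-reporter HEK293 cells was scaled between vehicle (0%) and zero RLU (-100%). Compounds were tested at final concentrations of up to 57.5 uM over 24 h at 37 degrees C. PTC124 at 50 uM final served as control inhibitor.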

Activity change, positive = activation, inactive:
O=C1CC(=O)Nc2cc(S(=O)(=O)N3CCOc4ccccc43)ccc2N1 -4.59%, COc1cc(NC(=O)CSc2nc(C)c(C(=O)Nc3ccccc3)c(-c3ccc(OC)c(OC)c3)c2C#N)c(OC)cc1Cl 0%, Cc1cc(Nc2sc(C(=O)c3ccc(F)cc3)c(N)c2C(=O)Nc2ccc(F)cc2)ccc1Cl -18.6%, COc1ccc(N2CC3=C(C2=O)C(c2ccc(Br)cc2)NC(=O)N3C)cc1 (configuration not stated) -34.8%, Cc1ccc(Cl)cc1N1CCN(CCCNc2ncnc3onc(-c4ccc(F)cc4)c23)CC1 -18%, CC(C)NC(=O)c1ccc(Cn2c(=O)c3cccn3c3cccnc32)cc1 -10.4%, COc1ccc(CC(=O)NC2CC(=O)N(c3ccc4c(c3)OCCO4)C2)cc1 (configuration not stated) -5.61%, Nc1c(C(=O)Nc2cccc(Cl)c2)sc2nc3c(cc12)CN(Cc1ccccc1)CC3 0.535%, CCOCCCn1c(=N)c(S(=O)(=O)c2ccc(C)cc2)cc2c(=O)n3ccccc3nc21 -4.27%, CCOC(=O)c1c(NC(=O)C(C)Sc2cn(CCNC(=O)c3ccc(OC)c(OC)c3)c3ccccc23)sc2c1CCC2 (configuration not stated) -22.4%, O=C(CSc1nncn2c1cc1sccc12)Nc1ccccc1C(F)(F)F -37.2%, O=C(NCCC1=CCCCC1)c1ccc2c(c1)N(Cc1ccc(F)cc1)C(=O)c1ccccc1S2(=O)=O -17.1%, COc1ccc2nc3sc(C(=O)Nc4cc(Cl)c(OC)cc4OC)cc3cc2c1 3.14%, CCOC(=O)c1c(C)oc2nc(C)nc(NCc3ccc(C)cc3)c12 -10%, CCN1CCN(Cc2c(O)ccc3c(=O)c(Oc4ccccc4Cl)c(C(F)(F)F)oc23)CC1 -11%, CO[C@]1(NC(=O)CSC(F)F)C(=O)N2C(C(=O)O)=C(CSc3nnnn3CCO)CO[C@H]21 -5.66%, COCCCNc1nc2c(-c3ccccc3)nnn2c2ccccc12 -9.21%, Cc1cc(C)cc(NC(=O)CCc2nnc3n(CC(C)C)c(=O)c4ccccc4n23)c1 -3.52%, O=C1NC(=O)C(c2cnc3ccccn23)=C1c1cn2c3c(cccc13)CN(C(=O)N1CCOCC1)CC2 -18.9%, CC(C)N(Cc1ccccc1)C(=O)CN1C(=O)COc2ccc(S(=O)(=O)NC3CCCC3)cc21 -19.3%, Nc1cccc2c1CN(C1CCC(=O)NC1=O)C2=O (configuration not stated), Cc1ccc(NC(=O)CSc2nc3nccnc3c(=O)n2CCc2c[nH]c3ccccc23)cc1 -27.1%, CCOC(=O)c1ccc(OCCN2C[C@H](O)[C@@H](O)[C@H](O)[C@H]2CO)cc1 -1.54%, COc1cc(CNc2ccc3[nH]c(=O)[nH]c3c2)ccc1OCc1ccccc1F 2.53%, CCN(C(=O)CSc1nc2ccccc2n1CC(=O)Nc1ccccc1C)c1ccccc1 -7.55%, COc1ccc(-n2ccn(Cc3ccccc3Cl)c(=O)c2=O)cc1OC -4.39%, CCN(CC)S(=O)(=O)c1ccc(NC(=O)CCc2c(C)nc3cc(-c4ccc(Cl)cc4)nn3c2C)cc1 -89%, CN(C)c1ccc(C(CNS(=O)(=O)c2ccc(Br)cc2)N2CCCC2)cc1 (configuration not stated) -14.4%, COc1ccc(Cl)cc1NC(=O)CSc1ccc(-c2sc(C)nc2C)nn1 -29%, CC(C)Cc1nn2c(=O)cc(COC(=O)c3ccc4c(c3)OCO4)nc2s1 1.19%, CCOC(=O)c1cc2c(=O)n3ccccc3nc2n(CCCOC)c1=NC(=O)C(C)(C)Oc1ccc(Cl)cc1 14.5%, CCOC(=O)c1c(C)[nH]c(CCC(=O)NCCCN2CCN(c3cc(C)ccc3C)CC2)c1C -40.7%, COc1ccccc1CNC(=O)CN1C(=O)CSc2ccc(S(=O)(=O)N(C)C)cc21 6.36%, CCOc1ccc(S(=O)(=O)N2CCN(c3ccc(Cl)c(Cl)c3)CC2)c2ccccc12 -1.48%, Cc1ccc(C)c(NC(=O)CSc2ncc3c(n2)-c2ccc(Cl)cc2N(C)S3(=O)=O)c1 -3.31%, CCCn1c(CCC(=O)Nc2cc(Cl)c(OC)cc2OC)nc2cccnc21 -7.43%, COc1ccc(NC(=O)CC2C(=O)N(c3ccc(C)cc3)C(=O)N2C2CCCCC2)cc1 (configuration not stated) -8.46%, O=C(CCSCc1ccccc1Cl)N1CCN(c2cccc(Cl)c2)CC1 17.8%, CCn1nc(-c2ccccc2)c(-c2ccccc2)c(C(=O)Nc2nc(C)c(C(=O)N(C)C)s2)c1=O -7.16%, O=C(O)C1CCC1 -2.74%, CCc1nc2cccnc2n1-c1ccc(CC(=O)Nc2ccc(C)cc2)cc1 -16.1%, O=C(Cn1c(=O)n(-c2ccccc2Cl)c(=O)c2sc3ccccc3c21)N1CCCC1 -20.9%, CCOc1ccc(CNC(=O)c2cnc3sc(N(CC)CC)nn3c2=O)cc1OC -16.7%, CC(NC(=O)c1ccc2c(c1)N(Cc1ccc(Cl)cc1)C(=O)c1ccccc1S2(=O)=O)c1ccccc1 (configuration not stated) -14.3%, CCOc1ccc(CCNC(=O)Cn2nc(CC)n3c(cc4sc(CC)cc43)c2=O)cc1OCC -10.3%, CCCCCn1c(=N)c(S(=O)(=O)c2ccccc2)cc2c(=O)n3ccccc3nc21 1.23%, CCn1c(=O)c2cc(C(=O)NC3CCCCCC3)sc2c2ccccc21 -27.2%, O=c1oc2c(CN3CCOCC3)c(O)ccc2cc1-c1ccc(Cl)cc1 26.2%, CCOC(=O)c1sc(NC(=O)c2nc3ncccn3n2)c(C(=O)OC)c1C -3.02%, O=S(=O)(NCc1ccccc1)c1ccc(-c2cnc(C3CC3)o2)cc1 -23.8%, CCc1ccc(CSc2nc(-c3ccc(OC)cc3)nc3c2Cc2c(CO)cnc(C)c2O3)cc1 -14.6%, COc1ccc(CNC(=O)CN(c2ccccc2OC)S(=O)(=O)c2ccc(C)cc2)cc1 -11.1%, COc1ccc(CNC(=O)CSc2nc3ccsc3c(=O)n2Cc2ccccc2Cl)cc1 -34.7%, CC(=O)Nc1ccc(O)cc1, CCc1ccc(N2C(=O)CC(c3cc(OC)ccc3OC)C3=C2COC3=O)cc1 (configuration not stated) -24.3%, O=C(Nc1ccc2oc(-c3cccnc3)nc2c1)c1ccc(-c2ccc(Cl)cc2)o1 7.58%, Cc1ccc(NC(=O)Cn2ncn3c(cc4ccccc43)c2=O)c(C)c1 -15.6%, CCOc1ccc(C2CC(=O)n3nc(-c4ccc(C)cc4)nc3S2)cc1 (configuration not stated) -5.38%, COc1ccccc1CNC(=O)Cc1csc2nc(-c3ccc(Cl)cc3)cn12 -12.9%, CCOc1cc(CNC(=O)c2ccc(C)c(NC(=O)c3nsc4ccccc34)c2)ccc1OC 7.11%, CCCn1c(SCC(O)c2cccc(OC)c2)nc2ccccc21 (configuration not stated) -20.3%, COc1ccc(CNC(=O)c2nnn(CC(=O)Nc3cc(C)cc(C)c3)c2N)cc1 -19.5%, COc1ccccc1C(=O)NC1(C(F)(F)F)C(=O)Nc2c1c(=O)[nH]c(=O)n2CCc1ccccc1 (configuration not stated) -4.75%, Cc1ccc(C)c(CN2CCCN(Cc3cc(C)ccc3C)S2(=O)=O)c1 -7.98%, COC(=O)c1ccc(-n2c(/C=C\c3cccc(Br)c3)nc3ccccc3c2=O)cc1 -20.5%, Cc1cnc(NS(=O)(=O)c2ccc(N)cc2)nc1 -9.11%, CCc1nc2ccccc2n1CCCCOc1ccccc1C -49.3%, Cc1ccc(S(=O)(=O)C(CNC(=O)C(=O)NCCc2ccccc2)c2ccco2)cc1 (configuration not stated) -15.5%, COc1ccc(S(=O)(=O)c2cn(Cc3ccccc3)c3cc(N4CCCC4)c(F)cc3c2=O)cc1 -13.4%, COc1ccc(CCNC(=O)CCCCn2c(=O)c3ccccc3n(CC(=O)Nc3ccccc3C)c2=O)cc1OC -4.98%, CCN1C(C(=O)c2ccccc2)=C(OC(=O)C(C)C)c2ccccc2S1(=O)=O -26.8%, O=C(CCNS(=O)(=O)c1ccc2c(c1)CCN2C(=O)C1CC1)N1CCN(c2ccc(F)cc2)CC1 -44.7%, CCc1ccccc1NC(=O)Cn1c(=O)nc(-c2ccccc2)c2ccccc21 -10.1%, COc1ccc(CCNC(=O)CCn2c(=O)c3ccccc3n(Cc3ccc(Cl)cc3)c2=O)cc1OC -8.18%, COc1ccc(CNC(=O)C2CCN(c3nc4ccc(C)cc4[nH]3)CC2)cc1 0.409%, CCn1c2c(c(=O)n3ncc(C(=O)Nc4cccc(Cl)c4C)c13)CN(Cc1ccc(OC)cc1)CC2 -13%, CCOC(=O)c1c(C)[nH]c(C)c1S(=O)(=O)N1CCC(C(=O)NCc2ccc(C)cc2)CC1 -5.94%, CCCC(O)c1nc2ccccc2n1CCCCOc1ccc(OC)cc1 (configuration not stated) -36.5%, Cc1cc(C)cc(NC(=O)CSc2nncn3c2cc2occc23)c1 -33.1%, CC[C@H]1OC(=O)[C@H](C)[C@@H](O[C@H]2C[C@@](C)(OC)[C@@H](O)[C@H](C)O2)[C@H](C)[C@@H](O[C@@H]2O[C@H](C)C[C@H](N(C)C)[C@@H]2O)[C@](C)(OC)C[C@@H](C)C(=O)[C@H](C)[C@@H](O)[C@]1(C)O -26.4%, O=C(CC1N=C2c3ccccc3N=C(SCc3ccc(F)cc3)N2C1=O)NCc1cccs1 (configuration not stated) -14.6%, CCOC(=O)c1scc(-c2ccc(C)cc2)c1S(=O)(=O)Nc1cc(Cl)ccc1OC -33.1%, CCn1c(SCC(=O)c2ccc([N+](=O)[O-])cc2)nnc1-c1ccc(Cl)cc1 8.33%, COc1cccc(CNC(=O)Cn2cc3c(n2)-c2c(oc(C(=O)N4CCCC4)c2C)CC3)c1 -32%, CCc1ccc(NC(=O)Cn2ncc3c4ccccc4n(C)c3c2=O)cc1 -3.04%, CCCCn1cc(S(=O)(=O)c2ccc(OC)cc2)c(=O)c2cc(F)c(F)cc21 -12.3%, CCN(CC)C(=O)c1sc2c(c1C)c(=O)n(-c1ccccc1)c(=O)n2Cc1cc(=O)n2ccccc2n1 -2.19%, Clc1cccc(-c2csc(-c3nc(-c4ccc(Br)s4)cs3)n2)c1 -5.23%, COC(=O)Cn1c(CN2CCN(c3ccc(OC)cc3)CC2)nc2c1c(=O)[nH]c(=O)n2C -13%, CCOC(=O)c1c(S(=O)(=O)NCC(=O)Nc2cccc(CC)c2)c(C)n(C)c1C -14.5%, CCOc1ccc(NC(=O)c2cc(S(=O)(=O)NC3CCCC3)ccc2F)cc1 -21.6%, Cc1ccc(OCc2nc(-c3ccc(C(=O)N4CCN(c5ccc(Cl)cc5)CC4)cc3)oc2C)cc1 -17.9%
